The list shows a part of the results. Most values come without repeats; read them as rough.
system: WM3619; experiment: cell count relative to DMSO control; melanoma cells; higher = more viable cells; conditions: library dose: standard library concentration; 72 h
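Note: cells treated in 1,536-well plates, then fixed and DAPI-stained, with nuclei counted from automated high-throughput microscope images.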

Structure (SMILES) | cell count [%]
OCCn1cc(-c2cnc3nnn(Cc4ccc5ncccc5c4)c3n2)cn1 + Oc1cc(-c2nc(-c3ccccc3)[nH]c2-c2ccncc2)ccc1Cl [L779450] (first compound 5 µM, partner dose 1 µM) | 74.1
Cc1nc(Nc2ncc(C(=O)Nc3c(C)cccc3Cl)s2)cc(N2CCN(CCO)CC2)n1 [dasatanib] + O=C(O)C(=O)Nc1sc2c(c1C(=O)O)CCNC2 [TCS401] (first compound 0.02 µM, partner dose 8.33333 µM) | 61.8
NC(=O)Nc1cc(-c2cccc(F)c2)sc1C(=O)N[C@H]1CCCNC1 + O=C(Nc1ccccc1)c1cc([N+](=O)[O-])ccc1Cl [GW9662] (first compound 0.1 µM, partner dose 10 µM) | 19.5
C[C@]1(c2nc3c(C(N)=O)cccc3[nH]2)CCCN1 [Veliparib] + O=C1NC(=O)/C(=C/c2ccc(-c3ccc(F)cc3O)o2)S1 [AS252424] (first compound 7 µM, partner dose 5 µM) | 67.1
NC(=O)Nc1cc(-c2cccc(F)c2)sc1C(=O)N[C@H]1CCCNC1 + O=S(=O)(c1ccccc1)N(CC(F)(F)F)c1ccc(C(O)(C(F)(F)F)C(F)(F)F)cc1 [T0901317] (first compound 0.1 µM, partner dose 7 µM) | 27.4
CO[C@@H]1[C@H](N(C)C(=O)c2ccccc2)C[C@H]2O[C@]1(C)n1c3ccccc3c3c4c(c5c6ccccc6n2c5c31)C(=O)NC4 [Midostaurin] + O=C(O)C(=O)Nc1sc2c(c1C(=O)O)CCNC2 [TCS401] (first compound 0.4 µM, partner dose 8.33333 µM) | 81.5

— the supplement of paper PMC4604168 (melanoma cell lines)
